From the supplement of paper PMC4166925
± gives the standard deviation of the averaged measurements. Over roughly 33,000 sequences, “E-score (dimensionless, -0.5 to 0.5)” has its median near -0.046; the highest 2% begin near 0.36. This is one part of the list.

system: T1, SpTbr T-box DNA-binding domain (GST fusion); test: PBM E-score of 8-mer (E-score (dimensionless, -0.5 to 0.5)); Tbr is Tbrain of the sea star Patiria miniata (Pm) or the sea urchin Strongylocentrotus purpuratus (Sp); higher = stronger binding preference; most listed sequences are background and not binding sites; conditions: the construct has about 5 more residues each side
T1 sequence: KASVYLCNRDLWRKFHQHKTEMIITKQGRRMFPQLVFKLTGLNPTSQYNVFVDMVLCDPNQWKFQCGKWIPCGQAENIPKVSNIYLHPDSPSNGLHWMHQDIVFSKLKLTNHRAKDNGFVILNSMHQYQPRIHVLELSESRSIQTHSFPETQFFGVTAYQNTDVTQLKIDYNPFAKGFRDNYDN
How it was run: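 Each ungapped 8-mer received an enrichment E-score from the Universal PBM Analysis Suite, averaged over duplicate arrays. The proteins were Tbr T-box DNA-binding domains, covering the whole T-box plus about five flanking residues, fused to GST and expressed in BL21 E. coli at 20 °C before glutathione affinity purification. Universal Agilent oligonucleotide arrays were made double-stranded by primer extension and incubated with 200 nM protein in PBS (pH 7.5). The arrays were then scanned and quantified, and every 8-mer was scored from probe intensities.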

| Sequence | PBM E-score of 8-mer |
| --- | --- |
| ACTATCCG | 0.0311 ± 0.025 |
| ATATTTGG | -0.125 ± 0.038 |
| CCTACAGG | -0.0723 ± 0.028 |
| TCTTTCCA | -0.145 ± 0.069 |
| CCAGCCCG | -0.222 ± 0.059 |
| ATAACAAG | 0.193 ± 0.064 |
| AAAGGTAA | -0.15 ± 0.0096 |
| CTACCTAC | -0.293 ± 0.0051 |
| CACAGGTA | 0.141 ± 0.0043 |
| AACTACTT | 0.0434 ± 0.044 |
| CAAGCGGG | -0.2261 ± 0.0012 |
| GGGGTCAC | 0.103 ± 0.041 |
| AGAAATTA | -0.258 ± 0.012 |
| AGAGGAGA | -0.116 ± 0.043 |
| CAACGAAC | -0.1 ± 0.061 |
| CTGCCGGC | 0.0699 ± 0.029 |
| GTGGAACA | 0.0786 ± 0.038 |
| GAAACAGA | -0.1542 ± 0.0003 |
| TACCCACA | 0.134 ± 0.038 |
| TCTCCCCA | -0.0395 ± 0.025 |
| ATGCCGGA | -0.308 ± 0.05 |
| GGCCGGTA | -0.0898 ± 0.023 |

| Sequence | PBM E-score of 8-mer |
| --- | --- |
| TAAGGGTA | -0.1207 ± 0.0011 |
| CAATAACC | -0.0937 ± 0.02 |
| ACCCTTCA | 0.112 ± 0.077 |
| CCTTATAG | -0.137 ± 0.0069 |
| TAGATTGA | -0.249 ± 0.036 |
| CCATATCG | -0.125 ± 0.032 |
| ACTAAGCC | -0.223 ± 0.02 |
| ATTCCAAT | 0.101 ± 0.05 |
| AAGGCGCG | 0.3333 ± 0.00044 |
| ATGCAATC | -0.0841 ± 0.019 |
| ATGGACTA | -0.0835 ± 0.016 |
| CGTATGAA | -0.0106 ± 0.026 |
| CTTCTTTA | 0.00213 ± 0.1 |
| CACACGAA | 0.0582 ± 0.055 |
| AAACCCGC | 0.136 ± 0.044 |
| TGGTTACA | 0.0299 ± 0.0034 |
| ATACCTTC | 0.00689 ± 0.0019 |
| ACCAGAAG | 0.0252 ± 0.0067 |
| ACAGACTA | -0.194 ± 0.0063 |
| GTAAATTA | -0.122 ± 0.028 |
| CAGGCCGC | -0.0803 ± 0.0052 |
| ACCTTCAG | -0.0468 ± 0.0081 |

| Sequence | PBM E-score of 8-mer |
| --- | --- |
| CCGGCTCA | -0.107 ± 0.0084 |
| ATGCCGAG | -0.199 ± 0.017 |
| ACTGAGAC | -0.191 ± 0.022 |
| ATGGCTTC | -0.12 ± 0.065 |
| ATTACGCC | -0.0243 ± 0.041 |
| AAATATCC | -0.0458 ± 0.0059 |
| ACGCCGAC | 0.161 ± 0.084 |
| TCGGTTAA | -0.0848 ± 0.015 |
| CGGGTGGA | 0.00923 ± 0.0075 |
| CTGCGAGC | 0.162 ± 0.0059 |
| AACCGAAT | -0.178 ± 0.037 |
| ATCTGTCA | 0.263 ± 0.043 |
| CTCGATTC | -0.164 ± 0.026 |
| GCAAGTAA | 0.0895 ± 0.0029 |
| ATTTCCGG | -0.243 ± 0.04 |
| GTGTGGCA | 0.292 ± 0.026 |
| ATCTTCAG | -0.141 ± 0.0099 |
| AAATTGGT | -0.122 ± 0.047 |
| CACCTTGG | 0.45 ± 0.005 |
| GCAGGCTA | -0.178 ± 0.05 |
| ACGTGGGC | -0.0975 ± 0.06 |
| CTGCCGGA | -0.156 ± 0.088 |

| Sequence | PBM E-score of 8-mer |
| --- | --- |
| CTTCAGGA | -0.14 ± 0.02 |
| AGTCAAAA | -0.181 ± 0.0086 |
| CCAGCATA | -0.187 ± 0.08 |
| ACACTTCA | 0.412 ± 0.0084 |
| CCTGATAG | -0.0894 ± 0.034 |
| ATCGGTCC | -0.101 ± 0.0079 |
| AGAGCTCG | -0.266 ± 0.014 |
| GTCTCGGA | -0.31 ± 0.009 |
| AGGCTTGC | -0.114 ± 0.002 |
| GGCGCGTA | 0.117 ± 0.017 |
| GATATTCC | -0.118 ± 0.075 |
| CCCCCCTA | -0.189 ± 0.0051 |
| CGCATATA | -0.0151 ± 0.069 |
| TATGCACA | -0.0282 ± 0.087 |
| ACTTTACC | -0.0717 ± 0.028 |
| TGGGATAA | 0.0854 ± 0.017 |
| TCCTAGGA | -0.134 ± 0.08 |
| ATGATTCC | -0.0927 ± 0.034 |
| GAGTCGAA | 0.0619 ± 0.02 |
| CTTGACCC | -0.308 ± 0.038 |
